In the supplement of paper PMC4967469:
The IC50 comes from the fitted curve, where viability falls to half of the control; a limit (>, <) means that the fit lies beyond the doses tested. AUC sums up the same curve from the lowest dose to the 256-fold higher top dose; it is 1 without any effect and falls as sensitivity rises. For part of these data: The top dose, if marked as inferred, is not printed in the source and was worked back from the curve model. For part of these data: Where an entry number is given, a second screen of the drug exists; the two often differ.

Experiments:
Experiment in all cases: Viability of human cancer cell lines after 72 h of drug (GDSC screen)
JNK Inhibitor VIII = compound: CCOc1nc(NC(=O)Cc2cc(OC)ccc2OC)cc(N)c1C#N [JNK Inhibitor VIII]; conditions: top dose 10 µM; top dose inferred
Experimental: (§1)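 Human cancer cell lines in 384-well plates, medium with 10% serum, drug for 72 h over a 256-fold dose range (nine 2-fold or five 4-fold steps up to the top dose). Adherent lines were fixed and stained with the nucleic acid dye Syto60, suspension lines read with resazurin; signal relative to control wells, capped at 0 and 100%. One two-parameter sigmoid per drug and line, fitted in a mixed model over all curves with the slope shared within a line.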

YM155 = compound: COCC[n+]1c2c(n(Cc3cnccn3)c1C)C(=O)c1ccccc1C2=O [YM155]; conditions: top dose 5.12 µM
Experimental: as §1

Docetaxel = compound: CC(=O)O[C@@]12CO[C@@H]1C[C@H](O)[C@@]1(C)C(=O)[C@H](O)C3=C(C)[C@@H](OC(=O)[C@H](O)[C@@H](NC(=O)OC(C)(C)C)c4ccccc4)C[C@@](O)([C@@H](OC(=O)c4ccccc4)[C@H]21)C3(C)C [Docetaxel]; conditions: top dose 0.0125 µM
Experimental: as §1

JNJ-26854165 = compound: c1ccc2c(CCNc3ccc(Nc4ccncc4)cc3)c[nH]c2c1 [JNJ-26854165]; conditions: top dose 10 µM
Experimental: as §1

OSI-906 = compound: C[C@]1(O)C[C@@H](c2nc(-c3ccc4ccc(-c5ccccc5)nc4c3)c3c(N)nccn32)C1 [OSI-906]; conditions: top dose 2.56 µM; top dose inferred
Experimental: as §1

NSC-207895 = compound: CN1CCN(c2ccc([N+](=O)[O-])c3no[n+]([O-])c23)CC1 [NSC-207895]; conditions: top dose 20 µM; top dose inferred
Experimental: as §1

JQ1 = compound: Cc1sc2c(c1C)C(c1ccc(Cl)cc1)=N[C@@H](CC(=O)OC(C)(C)C)c1nnc(C)n1-2 [JQ1]
Experimental: as §1

SB-715992 = compound: Cc1ccc(C(=O)N(CCCN)[C@@H](c2nc3cc(Cl)ccc3c(=O)n2Cc2ccccc2)C(C)C)cc1 [SB-715992]; conditions: top dose 0.128 µM; top dose inferred
Experimental: as §1

FTI-277 = compound: COC(=O)[C@H](CCSC)NC(=O)c1ccc(NC[C@@H](N)CS)cc1-c1ccccc1 [FTI-277]; conditions: top dose 1.024 µM; top dose inferred
Experimental: as §1

AMG-706 = compound: CC1(C)CNc2cc(NC(=O)c3cccnc3NCc3ccncc3)ccc21 [AMG-706]; conditions: top dose 2 µM; top dose inferred
Experimental: as §1

Belinostat = compound: O=C(/C=C/c1cccc(S(=O)(=O)Nc2ccccc2)c1)NO [Belinostat]; conditions: top dose 20 µM; top dose inferred
Experimental: as §1

[1] = top dose 1 µM, screen: GDSC drug entry 1218, top dose inferred
[2] = top dose 2.56 µM, screen: GDSC drug entry 163

Cell Line	AUC (JNK Inhibitor VIII)	IC50 (JNK Inhibitor VIII)	AUC (YM155)	IC50 (YM155)	AUC (Docetaxel)	IC50 (Docetaxel)	AUC (JNJ-26854165)	IC50 (JNJ-26854165)	AUC (OSI-906)	IC50 (OSI-906)	AUC (NSC-207895)	IC50 (NSC-207895)	AUC (JQ1; [1])	IC50 (JQ1; [1])	AUC (JQ1; [2])	IC50 (JQ1; [2])	AUC (SB-715992)	IC50 (SB-715992)	AUC (FTI-277)	IC50 (FTI-277)	AUC (AMG-706)	IC50 (AMG-706)	AUC (Belinostat)	IC50 (Belinostat)
SU8686 (pancreas, adherent)	0.985	> 10 µM	0.036	< 0.02 µM	0.769	0.00529 µM	0.931	> 10 µM	0.974	> 2.56 µM	0.984	> 20 µM	0.984	> 1 µM	0.657	0.462 µM	0.955	> 0.128 µM	0.968	> 1.02 µM	0.986	> 2 µM	0.63	3 µM
KP-2 (pancreas, adherent)	0.939	> 10 µM	0.534	0.399 µM	0.691	0.00282 µM	0.981	> 10 µM	0.843	2.04 µM	0.945	> 20 µM					0.776	0.0551 µM	0.986	> 1.02 µM	0.982	> 2 µM	0.561	1.86 µM
IGR-1 (melanoma, adherent)	0.99	> 10 µM	0.027	< 0.02 µM	0.827		0.752	2.97 µM	0.96	> 2.56 µM	0.784	7.39 µM			0.62	0.328 µM	0.857	0.0847 µM	0.971	> 1.02 µM	0.99	> 2 µM	0.263	0.292 µM
HuO9 (osteosarcoma, adherent)	0.975	> 10 µM	0.692	1.18 µM	0.731	0.00386 µM	0.812	6.11 µM	0.97	> 2.56 µM	0.984	> 20 µM	0.981	> 1 µM	0.529	0.194 µM	0.778	0.058 µM	0.984	> 1.02 µM	0.842	1.63 µM	0.672	4 µM
huH-1 (liver, adherent)	0.968	> 10 µM	0.983	> 5.12 µM	0.883	> 0.0125 µM	0.845	9.95 µM	0.968	> 2.56 µM	0.984	> 20 µM	0.974	> 1 µM	0.973	> 2.56 µM	0.984	> 0.128 µM	0.982	> 1.02 µM	0.931	> 2 µM	0.974	> 20 µM
SW48 (large intestine, adherent)	0.986	> 10 µM	0.214	0.0467 µM	0.606	0.00152 µM	0.954	> 10 µM	0.962	> 2.56 µM	0.924	> 20 µM	0.983	> 1 µM	0.784	1.08 µM	0.774	0.0498 µM	0.987	> 1.02 µM	0.967	> 2 µM	0.438	0.849 µM
SAT (head and neck, adherent)	0.882	> 10 µM	0.229	0.0324 µM	0.7	0.00395 µM	0.791	7.65 µM	0.937	> 2.56 µM	0.975	> 20 µM			0.828	> 2.56 µM	0.956	> 0.128 µM	0.841	> 1.02 µM	0.963	> 2 µM	0.481	1.08 µM
LN-18 (glioma, adherent)	0.961	> 10 µM	0.092	0.0219 µM	0.863	0.0076 µM	0.953	> 10 µM	0.992	> 2.56 µM	0.994	> 20 µM	0.993	> 1 µM	0.668	0.422 µM	0.989	> 0.128 µM	0.989	> 1.02 µM	0.963	> 2 µM	0.616	2.43 µM
NCI-H2172 (non-small cell lung carcinoma, adherent)	0.983	> 10 µM	0.655	1.01 µM	0.967	> 0.0125 µM	0.847	> 10 µM	0.592	0.313 µM	0.974	> 20 µM	0.981	> 1 µM	0.829	2.43 µM	0.966	> 0.128 µM	0.952	> 1.02 µM	0.981	> 2 µM	0.595	2.49 µM
SKG-IIIa (cervix, adherent)	0.982	> 10 µM	0.801	3.56 µM	0.688	0.00317 µM	0.859	> 10 µM	0.977	> 2.56 µM	0.981	> 20 µM	0.925	> 1 µM	0.846	> 2.56 µM	0.982	> 0.128 µM	0.978	> 1.02 µM	0.981	> 2 µM	0.889	> 20 µM
EW-7 (Ewing sarcoma, semi-adherent)	0.989	> 10 µM	0.019	< 0.02 µM	0.966	> 0.0125 µM	0.946	> 10 µM	0.542	0.205 µM	0.927	> 20 µM	0.988	> 1 µM	0.95	> 2.56 µM	0.798	0.0526 µM	0.987	> 1.02 µM	0.99	> 2 µM	0.296	0.362 µM
CAPAN-1 (pancreas, adherent)	0.946	> 10 µM	0.171	0.0279 µM	0.877	> 0.0125 µM	0.965	> 10 µM	0.887	> 2.56 µM	0.955	> 20 µM			0.859	2.51 µM	0.97	> 0.128 µM	0.981	> 1.02 µM	0.949	> 2 µM	0.695	4.72 µM
LCLC-103H (large cell lung carcinoma, adherent)	0.979	> 10 µM	0.023	< 0.02 µM	0.742	0.00355 µM	0.854	6.76 µM	0.861	1.84 µM	0.985	> 20 µM					0.847	0.081 µM	0.954	> 1.02 µM	0.986	> 2 µM	0.457	0.966 µM
Calu-3 (lung adenocarcinoma, adherent)	0.973	> 10 µM	0.325	0.0913 µM	0.947	> 0.0125 µM	0.869	> 10 µM	0.939	> 2.56 µM	0.982	> 20 µM					0.983	> 0.128 µM	0.935	> 1.02 µM	0.983	> 2 µM	0.7	5.32 µM
MDA-MB-468 (breast, adherent)	0.961	> 10 µM	0.032	< 0.02 µM	0.798	0.00571 µM	0.913	> 10 µM	0.987	> 2.56 µM	0.859	15.6 µM					0.501	0.00806 µM	0.982	> 1.02 µM	0.97	> 2 µM	0.768	7.19 µM
HuH-7 (liver, adherent)	0.979	> 10 µM	0.405	0.176 µM	0.874		0.871	9.35 µM	0.811	1.36 µM	0.9	> 20 µM					0.987	> 0.128 µM	0.986	> 1.02 µM	0.954	> 2 µM	0.448	0.9 µM
BxPC-3 (pancreas, adherent)	0.984	> 10 µM	0.032	< 0.02 µM	0.723	0.00366 µM	0.882	> 10 µM	0.957	> 2.56 µM	0.962	> 20 µM							0.947	> 1.02 µM	0.952	> 2 µM	0.48	1.09 µM
22RV1 (prostate, adherent)	0.977	> 10 µM	0.07	< 0.02 µM	0.701	0.00334 µM	0.887	> 10 µM	0.831	2.19 µM	0.899	> 20 µM					0.795	0.076 µM	0.981	> 1.02 µM	0.974	> 2 µM	0.267	0.226 µM
SBC-5 (small cell lung carcinoma, adherent)	0.993	> 10 µM	0.016	< 0.02 µM	0.7	0.00251 µM	0.903	8.8 µM	0.97	> 2.56 µM	0.849	11 µM					0.962	> 0.128 µM	0.993	> 1.02 µM	0.991	> 2 µM	0.348	0.517 µM
FU97 (stomach, adherent)	0.957	> 10 µM	0.426	0.2 µM	0.828	0.00799 µM	0.851	7.98 µM	0.958	> 2.56 µM	0.953	> 20 µM	0.976	> 1 µM	0.613	0.331 µM			0.986	> 1.02 µM	0.952	> 2 µM	0.521	1.43 µM
NCI-H661 (large cell lung carcinoma, adherent)	0.901	> 10 µM	0.033	< 0.02 µM	0.802	0.00768 µM	0.782	5.14 µM	0.946	> 2.56 µM	0.834	17 µM					0.685	0.0295 µM	0.9	> 1.02 µM	0.877	> 2 µM	0.371	0.511 µM
DMS-273 (small cell lung carcinoma, adherent)	0.967	> 10 µM	0.03	< 0.02 µM	0.529	0.000942 µM	0.887	> 10 µM	0.978	> 2.56 µM	0.783	8.93 µM	0.983	> 1 µM	0.599	0.305 µM			0.973	> 1.02 µM	0.976	> 2 µM	0.233	0.199 µM
KYSE-450 (oesophagus, adherent)	0.953	> 10 µM	0.038	< 0.02 µM	0.598				0.985	> 2.56 µM	0.915	> 20 µM	0.981	> 1 µM	0.575	0.254 µM	0.586	0.0135 µM	0.978	> 1.02 µM	0.984	> 2 µM	0.439	0.861 µM
AsPC-1 (pancreas, adherent)	0.971	> 10 µM	0.27	0.0437 µM	0.818	> 0.0125 µM	0.905	> 10 µM	0.95	> 2.56 µM	0.972	> 20 µM					0.939	> 0.128 µM	0.939	> 1.02 µM	0.94	> 2 µM	0.56	2.04 µM
